# Results as given in patent US12286632B2, “Rationally-designed synthetic peptide shuttle agents for delivering polypeptide cargos from an extracellular space to the cytosol and/or nucleus of a target eukaryotic cell, uses thereof, methods and kits relating to same” (Feldan Bio Inc., priority 2016, dated 2025).
# Where two headings read alike, the source gives them in different places. At least one peptide structure holds a part that was inferred or is arguable (an end, a ring closure or a residue). Ends that are not written are not given here.
# Tests used:
# [1] = system: HCC-78 cells; conditions: GFP-NLS 10 μM
# [2] = system: NCI-H196 cells; conditions: GFP-NLS 10 μM
# [3] = system: THP-1 cells; assay: Co-transduction of CRISPR/Cpf1-NLS and GFP-NLS, FACS enrichment; type: cell-based, human; conditions: 2 μM FSD18; data not shown
# [4] = system: T cells; type: cell-based, human; conditions: CRISPR/Cpf1-NLS 1.33 μM, crRNA 2 μM, 90 seconds, 72 hours after treatment
# Procedure: Unless otherwise specified, T cells used herein were obtained from healthy human blood collected in heparinized tubes. T cells were isolated using a Ficoll™ technique (Ficoll-Paque™ GE or Lymphoprep™ Stem Cell Technologies). Briefly, blood was mixed with the Ficoll™ solution in conical tubes (50 mL) and centrifuged at 2280 rpm for 20 minutes. Mononuclear cells were harvested and transferred in another conical tube (50 mL) before washing with PBS and centrifugation at 1100 rpm for 10 minutes. Cells were resuspended in 5 mL of PBS containing 20% FBS. Cells were counted and then incubated in a culture medium composed by RPMI advanced (cat: 12633012 ThermoFisher), 10% FBS, 1% Penstrep (15140122 ThermoFisher), 1% L-glutamine (25030081 ThermoFisher) IL-2 30U/ml). Next, T cells were enriched with a Human T cell Enrichment Kit (StemCell #cat: 19051) by negative selection following the manufacturer instructions. The enriched T cells were validated using a specific anti-CD3 antibody (Biolegend #cat: 300438). At this step, collected cells were typically around 99% T cells. T cells were activated by adding IL-2 at 30 U/mL and the anti-CD28 antibody (ThermoFisher #cat: 16-0289-85) in complete medium for 5 days prior to experimentation. The activation of T cell expansion was then double-checked with both anti-CD25 and anti-CD137 antibodies.
# A mix composed of a Cpf1-NLS recombinant protein with respective single guide crRNA(s) targeting a nucleotide sequence of the B2M gene was co-incubated with different concentrations of FSD21 or FSD18 peptide shuttle agents and incubated with T cells for 90 seconds in PBS using the transduction protocols as generally described in Example 3.1a. Each of the B2M crRNAs were designed to mediate CRISPR/Cpf1-based cleavage of the B2M gene, the phenotypic effects of which can be seen by the disruption of cell surface HLA, which is detectable by flow cytometry using a fluorescent APC Mouse Anti-Human HLA-ABC antibody.
# The cells were then resuspended in 100 μL PBS containing 1% FBS and 4 μL of APC Mouse Anti-Human HLA-ABC antibody before an incubation period of 20 minutes, in the dark, at ambient temperature. Then, 1 mL of PBS containing 1% FBS was added to the suspension followed by a 1200 rpm centrifugation of 5 minutes. Finally, the pellet was resuspended in 100 to 200 μL of PBS containing 1% FBS before flow cytometry analysis.
# [5] = system: various suspension cells; conditions: GFP-NLS 10 μM
# [6] = system: T cells
# [7] = system: T cells; assay: Successive GFP-NLS transductions with sorting of GFP-negative cells (flow cytometry); type: cell-based, human; conditions: FSD18 10 μM, GFP-NLS 20 μM, 90 sec
# [8] = system: DNMT1 genomic DNA sequence; assay: T7E1 DNA cleavage assay after CRISPR/Cpf1-NLS delivery (HeLa, NK, THP-1 cells, primary myoblasts); type: cell-based, Human
# [9] = Example I.2, FSD18 15 μM, FIG. 59C
# [10] = FSD18 15 μM + CRISPR/Cpf1 + GFP-NLS 20 μM, FIG. 58C
sequence,measurement,setting,value
KWKLARAFARAIKKLGGSGGGSYARALRRQARTG [FSD10],Mean % cells with GFP signal (±St. Dev.; n = 3),"[1]; Table E2, peptide 5 μM, 2 min",22.8 ± 3.06%
same,Mean % cells with GFP signal (±St. Dev.; n = 3),"[1]; Table E2, peptide 8 μM, 1 min",15.7 ± 2.67%
same,Mean % cells with GFP signal (±St. Dev.; n = 3),"[1]; Table E2, peptide 10 μM, 1 min",45.0 ± 4.23%
same,Mean % cells with GFP signal (±St. Dev.; n = 3),"[2]; Table E3, peptide 5 μM, 2 min",6.4 ± 0.71%
same,Mean % cells with GFP signal (±St. Dev.; n = 3),"[2]; Table E3, peptide 8 μM, 1 min",7.4 ± 0.83%
same,Mean % cells with GFP signal (±St. Dev.; n = 3),"[2]; Table E3, peptide 10 μM, 1 min",8.3 ± 0.76%
LLKLWSRLLKLWTQGGSGGGSGRRLKAKRAKA [FSD18],enrichment of genome edited cells after sorting of GFP-positive cells,[3],significant enrichment of genome edited cells
same,HLA-negative cells,[4]; peptide 8 μM,8.0%
same,HLA-negative cells,[4]; peptide 10 μM,9.43%
same,HLA-negative cells,[4]; peptide 12 μM,7.9%
same,Mean % cells with GFP signal (±St. Dev.; n = 3),"[5]; DOHH2 cells, peptide 1 μM, incubation time 90 (min)",2.4 ± 0.42%
same,Mean % cells with GFP signal (±St. Dev.; n = 3),"[5]; DOHH2 cells, peptide 2 μM, incubation time 30 (min)",26.8 ± 2.19%
same,Mean % cells with GFP signal (±St. Dev.; n = 3),"[5]; DOHH2 cells, peptide 10 μM, incubation time 30 (min)",27.2 ± 2.46%
same,Mean % cells with GFP signal (±St. Dev.; n = 3),"[5]; HT2 cells, peptide 1 μM, incubation time 90 (min)",12.3 ± 0.96%
same,Mean % cells with GFP signal (±St. Dev.; n = 3),"[5]; HT2 cells, peptide 2 μM, incubation time 30 (min)",31.0 ± 2.55%
same,Mean % cells with GFP signal (±St. Dev.; n = 3),"[5]; HT2 cells, peptide 10 μM, incubation time 30 (min)",82.5 ± 4.07%
same,Mean % cells with GFP signal (±St. Dev.; n = 3),"[5]; Jurkat cells, peptide 1 μM, incubation time 90 (min)",10.1 ± 1.11%
same,Mean % cells with GFP signal (±St. Dev.; n = 3),"[5]; Jurkat cells, peptide 2 μM, incubation time 30 (min)",11.0 ± 1.29%
same,Mean % cells with GFP signal (±St. Dev.; n = 3),"[5]; Jurkat cells, peptide 10 μM, incubation time 30 (min)",9.9 ± 1.06%
same,Mean % cells with GFP signal (±St. Dev.; n = 3),"[5]; KMS-12BM cells, peptide 1 μM, incubation time 90 (min)",13.6 ± 2.17%
same,Mean % cells with GFP signal (±St. Dev.; n = 3),"[5]; KMS-12BM cells, peptide 2 μM, incubation time 30 (min)",26.2 ± 3.93%
same,Mean % cells with GFP signal (±St. Dev.; n = 3),"[5]; KMS-12BM cells, peptide 10 μM, incubation time 30 (min)",21.0 ± 1.76%
same,Mean % cells with GFP signal (±St. Dev.; n = 3),"[5]; NK cells, peptide 1 μM, incubation time 90 (min)",2.80 ± 0.33%
same,Mean % cells with GFP signal (±St. Dev.; n = 3),"[5]; NK cells, peptide 2 μM, incubation time 30 (min)",6.41 ± 1.12%
same,Mean % cells with GFP signal (±St. Dev.; n = 3),"[5]; NK cells, peptide 5 μM, incubation time 15 (min)",65.7 ± 5.27%
same,Mean % cells with GFP signal (±St. Dev.; n = 3),"[5]; REC-1 cells, peptide 1 μM, incubation time 90 (min)",1.80 ± 0.88%
same,Mean % cells with GFP signal (±St. Dev.; n = 3),"[5]; REC-1 cells, peptide 2 μM, incubation time 30 (min)",10.9 ± 1.34%
same,Mean % cells with GFP signal (±St. Dev.; n = 3),"[5]; REC-1 cells, peptide 10 μM, incubation time 30 (min)",25.0 ± 1.89%
same,cells considered GFP-positive (GFP+),[6]; [9],93.2%
same,cells exhibiting high GFP fluorescence (GFP high),[6]; [9],33.1%
same,HLA-negative cells among GFP-positive cells,"[6]; Example I.2, FSD18 15 μM, FIG. 59D",21.8%
same,HLA-negative cells among cells exhibiting high GFP fluorescence,"[6]; Example I.2, FSD18 15 μM, FIG. 59E",41.6%
same,GFP-positive cells (Q2+Q3),[6]; [10],65.7%
same,HLA-negative cells (Q3+Q4),[6]; [10],11.7%
same,"cells in Q2 (HLA-positive, GFP-positive)",[6]; [10],54.4%
same,"cells in Q3 (HLA-negative, GFP-positive)",[6]; [10],11.3%
same,"cells in Q4 (HLA-negative, GFP-negative)",[6]; [10],0.441%
same,"genome-edited (HLA-negative) cells that were GFP-positive, Q3/(Q3+Q4)",[6]; [10],over 96%
same,"cells in Q4 (HLA-negative, GFP-negative)","[6]; FSD18 15 μM + CRISPR/Cpf1 in the absence of GFP-NLS, FIG. 58B",10.1%
same,genome-edited (HLA-negative) cells in the sorted GFP-negative fraction,"[6]; FSD18 15 μM, FIG. 58E",less than 0.1%
same,genome-edited (HLA-negative) cells in the sorted GFP-positive fraction,"[6]; FSD18 15 μM, FIG. 58F",29.7%
same,"GFP-NLS transduction efficiency, first transduction",[7]; FIG. 60B,55.4%
same,"GFP-NLS transduction efficiency, second transduction of sorted GFP-negative cells",[7]; FIG. 60D,60.6%
same,cleavage of DNMT1 target by delivered CRISPR/Cpf1-NLS (in words),"[8]; HeLa cells, 2 min",robust cleavage of the DNMT1 target
same,cleavage of DNMT1 target by delivered CRISPR/Cpf1-NLS (in words),"[8]; NK cells, 90 sec",lower but observable cleavage
